Consider one substance from PMC10073093.

This test deals with Recombinant Notch-1 protein (UniProt P46531). In words: ELISA. The settings on record: ligand; Species, supplier and limits not stated. Human assumed (mouse Q9QXX0 is possible). Limits are the mature extracellular region from the candidate's features; any Fc carrier omitted. Species, supplier and limits not stated. Human assumed (mouse Q01705 is possible). Limits follow the usual commercial recombinant Notch-1 ectodomain fragment (N-terminal EGF repeats including ligand-binding EGF 11-12),; modification not given.
Sequence of UniProt P46531 (P46531 19-526): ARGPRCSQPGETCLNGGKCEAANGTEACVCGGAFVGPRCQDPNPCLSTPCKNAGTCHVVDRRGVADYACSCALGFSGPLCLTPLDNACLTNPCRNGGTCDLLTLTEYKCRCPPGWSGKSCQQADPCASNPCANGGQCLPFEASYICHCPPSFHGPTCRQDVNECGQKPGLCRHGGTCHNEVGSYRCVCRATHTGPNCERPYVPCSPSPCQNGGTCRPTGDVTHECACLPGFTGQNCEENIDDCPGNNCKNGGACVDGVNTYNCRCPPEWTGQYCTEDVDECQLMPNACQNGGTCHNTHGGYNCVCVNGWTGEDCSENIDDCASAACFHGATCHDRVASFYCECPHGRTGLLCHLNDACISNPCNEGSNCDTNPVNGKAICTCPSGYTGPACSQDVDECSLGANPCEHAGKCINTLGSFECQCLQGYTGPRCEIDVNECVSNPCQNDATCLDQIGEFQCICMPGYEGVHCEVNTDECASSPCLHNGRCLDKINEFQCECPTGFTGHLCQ

As for “Jagged-1 (a stretch of the chain, no sequence given)”, the EC50 (in general, the concentration giving half of the maximal effect) is 0.145 µg/mL and the equilibrium dissociation constant (Kd) (as a rule, the free concentration of one partner at which half of the binding sites on the other are occupied at equilibrium, for simple one-to-one binding) was found to be 1.76 nM.
